# Experimental data taken from the supplement of paper PMC6089552.
# The whole screen tested about 3,200 compounds, of which about 300 (9.4%) showed activity. Only a part is listed here, and it is no random draw.
# Tested on: A673/TR/shEF
# Test: cell viability (LOESS-normalised, relative to median of negative controls) (log2 ratio); higher = more viable cells (less compound effect), active = hit call of the paper (over 3 MAD below the median)
# Settings: treatment time: 72 h
# In short: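 For three days, A673/TR/shEF Ewing sarcoma cells in 384-well plates (1,500 per well) were treated with library compounds at two or more concentrations or with DMSO controls, after doxycycline had been added or withheld 24 h beforehand to induce EWS-FLI1 shRNA knockdown. Viability was read by CellTiter-Glo luminescence on an Envision reader. The data were LOESS-corrected per plate, divided by the median of negative controls and log2-transformed.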
# [1] = 0.25 µM, library screen: screen1, EWS-FLI1 expression: high (no doxycycline)
# [2] = 0.25 µM, library screen: screen1, EWS-FLI1 expression: low (doxycycline-induced shRNA knockdown)
# [3] = 2.5 µM, library screen: screen1, EWS-FLI1 expression: high (no doxycycline)
# [4] = 2.5 µM, library screen: screen1, EWS-FLI1 expression: low (doxycycline-induced shRNA knockdown)
# [5] = 0.25 µM, library screen: screen2, EWS-FLI1 expression: high (no doxycycline)
# [6] = 0.25 µM, library screen: screen2, EWS-FLI1 expression: low (doxycycline-induced shRNA knockdown)
# [7] = 2.5 µM, library screen: screen2, EWS-FLI1 expression: high (no doxycycline)
# [8] = 2.5 µM, library screen: screen2, EWS-FLI1 expression: low (doxycycline-induced shRNA knockdown)
smiles,measurement,setting,value
S=C=NCc1ccccc1,cell viability (log2),[1],inactive: 0.0421
same,cell viability (log2),[2],inactive: 0.0817
same,cell viability (log2),[3],inactive: 0.0546
same,cell viability (log2),[4],inactive: 0.123
C[C@H]1CC[C@]2(NC1)O[C@H]1C[C@H]3[C@@H]4CC[C@H]5C[C@@H](O)CC[C@]5(C)[C@H]4CC[C@]3(C)[C@H]1[C@@H]2C,cell viability (log2),[1],inactive: 0.0391
same,cell viability (log2),[2],inactive: 1.7e-05
same,cell viability (log2),[3],inactive: 0.161
same,cell viability (log2),[4],inactive: 0.0669
COP(=O)(OC)OC=C(Cl)Cl,cell viability (log2),[1],inactive: 0.059
same,cell viability (log2),[2],inactive: 0.0393
same,cell viability (log2),[3],inactive: 0.104
same,cell viability (log2),[4],inactive: 0.00932
CN1CC[C@]2(CCN3CCc4c(oc5ccccc45)[C@@H]3C2)N(C)C1=O,cell viability (log2),[5],inactive: 0.195
same,cell viability (log2),[6],inactive: 0.0926
same,cell viability (log2),[7],inactive: 0.114
same,cell viability (log2),[8],inactive: 0.114
N#CC(C#N)=Cc1ccc(O)c(O)c1,cell viability (log2),"0.025 µM, library screen: screen1, EWS-FLI1 expression: high (no doxycycline)",inactive: 0.0488
same,cell viability (log2),"0.025 µM, library screen: screen1, EWS-FLI1 expression: low (doxycycline-induced shRNA knockdown)",inactive: -0.0484
same,cell viability (log2),[1],inactive: 0.042
same,cell viability (log2),[2],inactive: -0.0954
same,cell viability (log2),[5],inactive: 0.172
same,cell viability (log2),[6],inactive: 0.124
same,cell viability (log2),[3],inactive: 0.0531
same,cell viability (log2),[4],inactive: -0.000697
same,cell viability (log2),[7],inactive: 0.143
same,cell viability (log2),[8],inactive: 0.061
same,cell viability (log2),"25 µM, library screen: screen1, EWS-FLI1 expression: high (no doxycycline)",inactive: -0.0656
same,cell viability (log2),"25 µM, library screen: screen1, EWS-FLI1 expression: low (doxycycline-induced shRNA knockdown)",inactive: 0.016
Nc1ncnc2c1ncn2[C@@H]1O[C@H](COP(=O)(O)CP(=O)(O)OP(=O)([O-])[O-])[C@H](O)C1O.[Li+].[Li+] (stereo partly drawn),cell viability (log2),[5],inactive: 0.132
same,cell viability (log2),[6],inactive: 0.0925
same,cell viability (log2),[7],inactive: 0.106
same,cell viability (log2),[8],inactive: 0.143
CO[C@H]1C[C@H](O[C@H]2CC[C@@]3(C)[C@H](CC[C@@H]4[C@@H]3CC[C@]3(C)[C@@H](C5=CC(=O)OC5)[C@@H](OC(C)=O)C[C@]43O)C2)O[C@@H](C)[C@@H]1O,cell viability (log2),[1],active: -0.578
same,cell viability (log2),[2],active: -1.73
same,cell viability (log2),[3],active: -3.54
same,cell viability (log2),[4],active: -4.25
COc1ccc2[nH]c3c(c2c1)CCNC3,cell viability (log2),[5],inactive: 0.0618
same,cell viability (log2),[6],inactive: 0.101
same,cell viability (log2),[7],inactive: 0.067
same,cell viability (log2),[8],inactive: 0.0895
CO[C@H]1[C@H](O)[C@H](O[C@H]2CC[C@@]3(C=O)[C@H](CC[C@@H]4[C@@H]3CC[C@]3(C)[C@@H](C5=CC(=O)OC5)CC[C@]43O)C2)O[C@@H](C)[C@@H]1O,cell viability (log2),[1],active: -3.17
same,cell viability (log2),[2],active: -3.22
same,cell viability (log2),[3],active: -3.52
same,cell viability (log2),[4],active: -4.22
Cc1cccc(C)c1NC(=O)CN1CCCC1=O,cell viability (log2),"0.103 µM, library screen: screen3, EWS-FLI1 expression: high (no doxycycline)",inactive: 0.119
same,cell viability (log2),"0.103 µM, library screen: screen3, EWS-FLI1 expression: low (doxycycline-induced shRNA knockdown)",inactive: -0.000586
same,cell viability (log2),"0.308 µM, library screen: screen3, EWS-FLI1 expression: high (no doxycycline)",inactive: 0.107
same,cell viability (log2),"0.308 µM, library screen: screen3, EWS-FLI1 expression: low (doxycycline-induced shRNA knockdown)",inactive: 0.118
same,cell viability (log2),"0.926 µM, library screen: screen3, EWS-FLI1 expression: high (no doxycycline)",inactive: 0.135
same,cell viability (log2),"0.926 µM, library screen: screen3, EWS-FLI1 expression: low (doxycycline-induced shRNA knockdown)",inactive: 0.0891
same,cell viability (log2),"2.8 µM, library screen: screen3, EWS-FLI1 expression: high (no doxycycline)",inactive: 0.156
same,cell viability (log2),"2.8 µM, library screen: screen3, EWS-FLI1 expression: low (doxycycline-induced shRNA knockdown)",inactive: 0.0751
same,cell viability (log2),"8.3 µM, library screen: screen3, EWS-FLI1 expression: high (no doxycycline)",inactive: 0.15
same,cell viability (log2),"8.3 µM, library screen: screen3, EWS-FLI1 expression: low (doxycycline-induced shRNA knockdown)",inactive: 0.0489
same,cell viability (log2),"25 µM, library screen: screen3, EWS-FLI1 expression: high (no doxycycline)",inactive: 0.154
same,cell viability (log2),"25 µM, library screen: screen3, EWS-FLI1 expression: low (doxycycline-induced shRNA knockdown)",inactive: 0.0876
NC(=O)CI,cell viability (log2),[5],inactive: 0.186
same,cell viability (log2),[6],inactive: 0.0745
same,cell viability (log2),[7],inactive: -0.0247
same,cell viability (log2),[8],inactive: 0.0697
C[C@@H]1O[C@H](C[N+](C)(C)C)C[C@H]1O,cell viability (log2),[5],inactive: 0.143
same,cell viability (log2),[6],inactive: 0.0741
same,cell viability (log2),[7],inactive: 0.116
same,cell viability (log2),[8],inactive: -0.0161
CP(=O)(O)C1=CCNCC1,cell viability (log2),[5],inactive: 0.234
same,cell viability (log2),[6],inactive: 0.0656
same,cell viability (log2),[7],inactive: 0.15
same,cell viability (log2),[8],inactive: 0.0635
